Data as given in the supplement of paper PMC4604168 (melanoma cell lines).
This is one part of the list. Repeats are few or missing, and single values can be far off.

What was measured:
Test in all cases: cell count relative to DMSO control; melanoma cells; higher = more viable cells
Settings in all cases: library dose: standard library concentration; 72 h
[1] = system: SkMel28
[2] = system: SkMel2
[3] = system: SkMel30
[4] = system: SkMel5
[5] = system: UACC257
[6] = system: UACC62
[7] = system: WM115
[8] = system: WM1716
[9] = system: WM1745
[10] = system: WM3526
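Further: cells treated in 1,536-well plates, then fixed and DAPI-stained, with nuclei counted from automated high-throughput microscope images.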

SMILES | cell count [1] [%] | cell count [2] [%] | cell count [3] [%] | cell count [4] [%] | cell count [5] [%] | cell count [6] [%] | cell count [7] [%] | cell count [8] [%] | cell count [9] [%] | cell count [10] [%]
CS(=O)(=O)c1ccc(C(=O)Nc2ccc(Cl)c(-c3ccccn3)c2)c(Cl)c1 [vismodegib] + Nc1cccc2c1CN(C1CCC(=O)NC1=O)C2=O [lenalidomide] (first compound 5 µM, partner dose 5 µM) | 108 | 115 | 113 | 117 | 101 | 102 | 109 | 101 | 93.5 | 115
CN(c1ncccc1CNc1nc(Nc2ccc3c(c2)CC(=O)N3)ncc1C(F)(F)F)S(C)(=O)=O + Cc1nc(Nc2ncc(C(=O)Nc3c(C)cccc3Cl)s2)cc(N2CCN(CCO)CC2)n1 [dasatanib] (first compound 0.4 µM, partner dose 0.02 µM) | 22.4 | 77.2 | 98.1 | 43.1 | 49.3 | 76.2 | 59.3 | 50.4 | 22.2 | 88.8
NC1(c2ccc(-c3nc4ccn5c(=O)[nH]nc5c4cc3-c3ccccc3)cc2)CCC1 + Nc1cccc2c1CN(C1CCC(=O)NC1=O)C2=O [lenalidomide] (first compound 2 µM, partner dose 5 µM) | 75.1 | 101 | 98.5 | 83.7 | 80.7 | 61.1 | 98.2 | 99.7 | 99 | 91.6
CN(c1ncccc1CNc1nc(Nc2ccc3c(c2)CC(=O)N3)ncc1C(F)(F)F)S(C)(=O)=O + CC(C)C[C@H](NC(=O)[C@H](Cc1ccccc1)NC(=O)c1cnccn1)B(O)O [Bortezomib] (first compound 0.4 µM, partner dose 0.005 µM) | 25.5 | 35.3 | 38.1 | 22.2 | 72.2 | 61.3 | 19.6 | 16.7 | 21.1 | 31
CS(=O)(=O)c1ccc(C(=O)Nc2ccc(Cl)c(-c3ccccn3)c2)c(Cl)c1 [vismodegib] + Cn1c(=O)n(-c2ccc(C(C)(C)C#N)cc2)c2c3cc(-c4cnc5ccccc5c4)ccc3ncc21 [NVP-BEZ235] (first compound 5 µM, partner dose 0.02 µM) | 48.3 | 58.9 | 76.6 | 64.2 | 111 | 60.4 | 92.2 | 82.4 | 103 | 63.1
CS(=O)(=O)c1ccc(C(=O)Nc2ccc(Cl)c(-c3ccccn3)c2)c(Cl)c1 [vismodegib] + Cc1cc(N2CCOCC2)cc2[nH]c(-c3c(NC[C@@H](O)c4cccc(Cl)c4)cc[nH]c3=O)nc12 [BMS536924] (first compound 5 µM, partner dose 1 µM) | 120 | 87.5 | 82.4 | 87 | 101 | 106 | 111 | 110 | 57 | 82.1
CN(c1ncccc1CNc1nc(Nc2ccc3c(c2)CC(=O)N3)ncc1C(F)(F)F)S(C)(=O)=O + C=C(c1ccc(C(=O)O)cc1)c1cc2c(cc1C)C(C)(C)CCC2(C)C [Bexarotene] (first compound 0.4 µM, partner dose 10 µM) | 56.5 | 69.6 | 86.5 | 85.4 | 77.3 | 54.5 | 67.3 | 84.5 | 67.7 | 93.9
NC1(c2ccc(-c3nc4ccn5c(=O)[nH]nc5c4cc3-c3ccccc3)cc2)CCC1 + CC1(C)NC(=O)N(c2ccc([N+](=O)[O-])c(C(F)(F)F)c2)C1=O [nilutamide] (first compound 2 µM, partner dose 5 µM) | 98.5 | 69.7 | 111 | 77.1 | 90.7 | 67.7 | 62.1 | 81 | 90.7 | 81.2
NC1(c2ccc(-c3nc4ccn5c(=O)[nH]nc5c4cc3-c3ccccc3)cc2)CCC1 + Nc1ncn([C@H]2C[C@H](O)[C@@H](CO)O2)c(=O)n1 [decitabine] (first compound 2 µM, partner dose 0.5 µM) | 51.9 | 73.9 | 91.4 | 80.4 | 99 | 63.3 | 59.7 | 68.2 | 81.8 | 61.6
CS(=O)(=O)c1ccc(C(=O)Nc2ccc(Cl)c(-c3ccccn3)c2)c(Cl)c1 [vismodegib] + O=C(O)[C@@H]1[O][Sb](=[O])([O][Sb]2(=[O])[O][C@H]([C@H](O)CO)[C@H](O)[C@H](C(=O)O)[O]2)[O][C@H]([C@H](O)CO)[C@@H]1O [stibogluconate] (first compound 5 µM, partner dose 10 µM) | 122 | 101 | 109 | 103 | 103 | 82.3 | 102 | 96.3 | 106 | 89.1
CS(=O)(=O)c1ccc(C(=O)Nc2ccc(Cl)c(-c3ccccn3)c2)c(Cl)c1 [vismodegib] + NCC(=O)Nc1ccc(-n2nc(C(F)(F)F)cc2-c2ccc3c(ccc4ccccc43)c2)cc1 [OSU03012] (first compound 5 µM, partner dose 5 µM) | 32.3 | 38.2 | 46.4 | 86.2 | 69.6 | 78.5 | 77.5 | 95.2 | 106 | 50.4
C=C(c1ccc(C(=O)O)cc1)c1cc2c(cc1C)C(C)(C)CCC2(C)C [Bexarotene] + Cc1cc(N2CCOCC2)cc2[nH]c(-c3c(NC[C@@H](O)c4cccc(Cl)c4)cc[nH]c3=O)nc12 [BMS536924] (first compound 10 µM, partner dose 1 µM) | 107 | 97.8 | 101 | 95.3 | 89.9 | 97 | 112 | 96.4 | 57.2 | 77
CS(=O)(=O)c1ccc(C(=O)Nc2ccc(Cl)c(-c3ccccn3)c2)c(Cl)c1 [vismodegib] + CC(C)C[C@H](NC(=O)[C@H](Cc1ccccc1)NC(=O)c1cnccn1)B(O)O [Bortezomib] (first compound 5 µM, partner dose 0.005 µM) | 26.4 | 36.4 | 26.3 | 31.6 | 79.7 | 45.2 | 31 | 25.4 | 17.1 | 25.1
CCCS(=O)(=O)Nc1ccc(F)c(C(=O)c2c[nH]c3ncc(Cl)cc23)c1F + Nc1ncn([C@H]2C[C@H](O)[C@@H](CO)O2)c(=O)n1 [decitabine] (first compound 0.4 µM, partner dose 0.5 µM) | 62.6 | 98.6 | 87.7 | 68.2 | 94.1 | 51.7 | 95.5 | 66.3 | 110 | 40.5
CS(=O)(=O)c1ccc(C(=O)Nc2ccc(Cl)c(-c3ccccn3)c2)c(Cl)c1 [vismodegib] + CC1(C)NC(=O)N(c2ccc([N+](=O)[O-])c(C(F)(F)F)c2)C1=O [nilutamide] (first compound 5 µM, partner dose 5 µM) | 140 | 92.1 | 91.7 | 106 | 100 | 93.5 | 110 | 111 | 95.4 | 95.6
CCCS(=O)(=O)Nc1ccc(F)c(C(=O)c2c[nH]c3ncc(Cl)cc23)c1F + CC(=O)c1c(C)c2cnc(Nc3ccc(N4CCNCC4)cn3)nc2n(C2CCCC2)c1=O [palbociclib] (first compound 0.4 µM, partner dose 0.2 µM) | 24.9 | 53 | 58.5 | 43.8 | 85.6 | 44.4 | 46.6 | 37.1 | 98.5 | 36.5
C=C(c1ccc(C(=O)O)cc1)c1cc2c(cc1C)C(C)(C)CCC2(C)C [Bexarotene] + Cn1nnc2c(C(N)=O)ncn2c1=O [temozolomide] (first compound 10 µM, partner dose 10 µM) | 36.3 | 128 | 67.2 | 108 | 76.6 | 58 | 82.2 | 57.4 | 78.7 | 96.5
C=C(c1ccc(C(=O)O)cc1)c1cc2c(cc1C)C(C)(C)CCC2(C)C [Bexarotene] + NC(=O)Nc1cc(-c2cccc(F)c2)sc1C(=O)N[C@H]1CCCNC1 [AZD7762] (first compound 10 µM, partner dose 0.1 µM) | 70 | 97.1 | 84.4 | 111 | 74.2 | 73.5 | 72.3 | 55.6 | 86.7 | 59.3
NC1(c2ccc(-c3nc4ccn5c(=O)[nH]nc5c4cc3-c3ccccc3)cc2)CCC1 + C#Cc1cccc(Nc2ncnc3cc(OCCOC)c(OCCOC)cc23)c1 [erlotinib] (first compound 2 µM, partner dose 4 µM) | 49.2 | 66.1 | 76.6 | 57.7 | 94.6 | 53.1 | 70.7 | 88 | 55.4 | 62.7
CS(=O)(=O)c1ccc(C(=O)Nc2ccc(Cl)c(-c3ccccn3)c2)c(Cl)c1 [vismodegib] + Cn1cncc1[C@@](N)(c1ccc(Cl)cc1)c1ccc2c(c1)c(-c1cccc(Cl)c1)cc(=O)n2C [tipifarnib] (first compound 5 µM, partner dose 0.05 µM) | 104 | 77 | 109 | 67 | 104 | 59.2 | 67 | 81.8 | 81.3 | 73
CN(c1ncccc1CNc1nc(Nc2ccc3c(c2)CC(=O)N3)ncc1C(F)(F)F)S(C)(=O)=O + CO[C@H]1C[C@@H]2CC[C@@H](C)[C@@](O)(O2)C(=O)C(=O)N2CCCC[C@H]2C(=O)O[C@H]([C@H](C)C[C@@H]2CC[C@@H](OCCO)[C@H](OC)C2)CC(=O)[C@H](C)/C=C(\C)[C@@H](O)[C@@H](OC)C(=O)[C@H](C)C[C@H](C)/C=C/C=C/C=C/1C [everolimus] (first compound 0.4 µM, partner dose 0.1 µM) | 50.9 | 72.1 | 71.6 | 66.2 | 85.3 | 72.9 | 69.4 | 76 | 92.7 | 74.9
